Hit rate of the full screen: of about 110,000 compounds, about 230 (0.21%) showed an effect of 50% or more. The list shows a part of the results.
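Note: 30 min substrate incubation versus DMSO and 10 µM JCP410 controls.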

For the assay, the target named is DPAP1 (Plasmodium falciparum, UniProt Q8IIJ9). The experiment in a line: primary screen, percent inhibition; read by cleavage of a fluorogenic dipeptide substrate; higher = more effect of the substance. The arrangement: species or system P. falciparum D10 trophozoite lysates; single well.
DPAP1, sequence (Q8IIJ9 whole entry, looked up): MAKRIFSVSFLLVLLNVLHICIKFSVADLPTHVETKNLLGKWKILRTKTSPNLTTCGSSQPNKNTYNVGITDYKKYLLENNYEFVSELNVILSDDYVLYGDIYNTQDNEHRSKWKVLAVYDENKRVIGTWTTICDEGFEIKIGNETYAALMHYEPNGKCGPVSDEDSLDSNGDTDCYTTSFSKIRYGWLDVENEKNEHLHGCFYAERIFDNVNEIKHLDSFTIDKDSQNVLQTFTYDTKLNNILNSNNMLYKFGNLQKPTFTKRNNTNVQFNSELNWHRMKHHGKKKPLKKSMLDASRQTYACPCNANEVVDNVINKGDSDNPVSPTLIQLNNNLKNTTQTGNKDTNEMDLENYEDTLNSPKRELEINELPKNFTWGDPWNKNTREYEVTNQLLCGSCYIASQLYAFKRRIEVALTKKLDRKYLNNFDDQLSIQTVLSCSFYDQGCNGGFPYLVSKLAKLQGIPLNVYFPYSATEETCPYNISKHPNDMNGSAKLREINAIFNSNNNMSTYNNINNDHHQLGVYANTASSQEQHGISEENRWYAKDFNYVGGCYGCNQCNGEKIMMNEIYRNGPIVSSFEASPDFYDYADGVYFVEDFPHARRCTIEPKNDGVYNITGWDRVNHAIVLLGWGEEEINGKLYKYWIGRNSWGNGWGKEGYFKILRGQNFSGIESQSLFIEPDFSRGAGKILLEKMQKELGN
Regarding `COc1cccc(NC2(c3nnnn3-c3c(C)cccc3C)CCCC2)c1`, the “% Inhibition @ 10 uM” value was -8.3%.
For `CC(=O)Nc1nc2c(s1)CC(C(C)(C)C)CC2` (stereo not drawn), the “% Inhibition @ 10 uM” value was -2.65%.
With `O=C(c1ccc(F)cc1)N1CCN(c2ccc(Cl)cc2)CC1`, the “% Inhibition @ 10 uM” value is -2.17%.
With `Cc1ccc2[nH]c(-c3cccc([N+](=O)[O-])c3)nc2c1` the figure was 2.76%.
With `CSc1nc(Oc2ccc(C)c(C)c2)cc(-n2ncc(C(N)=O)c2N)n1`, the “% Inhibition @ 10 uM” value was -0.116%.
The same measure for `CCN(CC)CCC/N=c1/c(-c2ccc(C(C)C)cc2)c(O)c1=O`: -5.3%; for `CCN(CC)c1ccc(/C=C2\SC(Nc3ccc(F)cc3)=NC2=O)o1`: 12.1%; for `CC(=O)c1ccc(N2CCN(Cc3ccccc3Cl)CC2)cc1`: 4.55%.
The same measure for `COc1ccc(Cl)cc1N(CC(=O)N1CCN(C)CC1)S(C)(=O)=O`: 3.74%; for `Cc1ccccc1OCC(=O)Nc1nc(C)c(C(=O)N(C)C)s1`: -1.28%.
The same measure for `COc1cccc(C2=NN(C(=O)C3CC3)C(O)(C(F)(F)F)C2)c1` (stereo not drawn): -6.17%; for `Clc1ccc(OCCOCCN2CCCCC2)cc1`: -1.82%.
Take `CCN(Cc1ccccc1)C(=O)COc1ccccc1`: the “% Inhibition @ 10 uM” value is -5.92%.
With `c1ccc2sc(N3CCOCC3)nc2c1` the figure was -2.78%; with `CCN1CCN(CCCNC(=O)c2oc3c(c2C)-c2nn(Cc4ccccc4Cl)cc2CC3)CC1`, 9.55%.
The same measure for `O=C(Cn1cc(S(=O)(=O)Cc2ccccc2F)c2ccccc21)NCCc1ccccc1`: 0.458%; for `O=C(NCCCN1CCOCC1)Nc1noc2c1COc1ccccc1-2`: -2.57%.
In the case of `CCOC(=O)c1[nH]c2ccc(OC)cc2c1NC(=S)N1CCN(C(=O)c2ccco2)CC1`, the “% Inhibition @ 10 uM” value stood at 0.351%.
With `COC1CCCCC1NCCc1ccc(Cl)cc1Cl` (stereo not drawn) the figure was -1.54%; with `Cc1ccccc1Cc1c(C)nc2c(C(=O)NCCc3ccc(Cl)cc3)cnn2c1C`, -5.8%.
The same measure for `COc1ccc(C2C(C#N)=C(C)N(C)C3=C2C(=O)c2ccccc23)cc1` (stereo not drawn): -4.67%.
With `COc1cccc(/C=C(\C#N)c2nc3cc(C)ccc3[nH]2)c1OC` the figure was -2.07%; with `O=C(CNS(=O)(=O)c1cc(Cl)ccc1Cl)N1CCN(c2ccccc2F)CC1`, -4.14%; with `O=C1C2C(C(=O)N1c1ccc3ccccc3c1)C1C=CC2C12CC2` (stereo not drawn), -3.26%.
As for `COC(=O)c1sccc1NC(=O)CSCCc1ccncc1`, the “% Inhibition @ 10 uM” value is listed as -4.17%.
With `Cc1ccc(S(=O)(=O)Nc2nc(N)n(-c3ccccc3)n2)cc1`, the “% Inhibition @ 10 uM” value was found to be 2.56%.
With `CC(C)CC(C(=O)NCC#N)c1cccc(-c2cccc(S(=O)(=O)N3CCN(C)CC3)c2)c1` (stereo not drawn) the figure was -4.72%.
The same measure for `CCN(CC)C(=O)c1sc2nc3n(c(=O)c2c1C)CCCCC3`: -4.11%; for `CCCCNc1nc2c(S(=O)(=O)c3ccccc3)nnn2c2ccccc12`: -14.7%; for `CCCCc1ccc(-c2c(C#N)c(N)nc3c2CCCCC3)s1`: 7.56%.
The same measure for `Cc1cccc(OCCn2c(=O)n(C)c3ccccc32)c1`: 1.67%; for `CCc1ccc(C(=O)NCC2(c3ccccc3)CCOCC2)o1`: 2.95%.
Turning to `Cc1ccc(S(=O)(=O)NC(=O)Nc2cccc(Cl)c2C)cc1`, the “% Inhibition @ 10 uM” value turned out to be 5.66%.
The same measure for `CC(NCC1CCCCC1)c1ccccc1` (stereo not drawn): 0.722%; for `CCOc1ccccc1/C=C(\C#N)c1nc2cc(C)ccc2[nH]1`: -2.28%.
The same measure for `CCCc1nn(-c2ccc(F)cc2)c(O)c1/C=N/Cc1ccco1`: 2.18%; for `COC(=O)c1sccc1NC(=O)C1=C(C)C(=O)OC12CCN(C(C)=O)CC2`: 2.37%.
The same measure for `Cc1ccccc1OCCCCN1CCOCC1`: -5.94%; for `C=CCn1c(S)nnc1-c1cccc(C)c1`: -2.35%.
With `CN(Cc1ccco1)C(=O)c1nc(-c2ccncc2)no1`, the “% Inhibition @ 10 uM” value was -6.66%.
The same measure for `CCOC(=O)CNC(=O)c1ccsc1`: 3.83%; for `Cc1cc(C)nc(NS(=O)(=O)c2cccs2)c1`: 2.06%.
The same measure for `CC(=O)N(C)c1ccc(NC(=O)COc2ccc(Br)c(C)c2)cc1`: 2.27%; for `Cc1cc(/C=C2/NC(=O)N(c3cccc(Cl)c3)C2=O)c(C)n1-c1ccccn1`: 1.52%.
As for `CCC1(CC)Cc2ccccc2C(N2CCOCC2)=N1`, the “% Inhibition @ 10 uM” value is 3.99%.
The same measure for `O=C(NC(=S)Nc1c(Cl)cc(Cl)cc1Cl)c1ccco1`: -0.0217%.
With `O=C(NCCc1ccccc1)c1ccc(CSc2nc3ccncc3[nH]2)cc1` the figure was -3.35%; with `CCCSCCCNC(=O)CS(=O)(=O)Cc1nc(-c2ccccc2F)oc1C`, 4.77%.
For the molecule `NC(=O)c1nn2c(c1Cl)NC(c1ccc(Cl)cc1)CC2C(F)(F)F` (stereo not drawn), the “% Inhibition @ 10 uM” value is listed as -0.996%.
With `COc1cc(-c2nnc3sc(Cc4ccccc4)nn23)cc(OC)c1OC` the figure was 2.89%; with `Cc1[nH]c2ccccc2c1CC/N=C/C1=C(O)CC(c2ccc(F)cc2)CC1=O` (stereo not drawn), 2.24%.

The record behind these values is publication PMC6919601, “Identification of Plasmodium dipeptidyl aminopeptidase allosteric inhibitors by high throughput screening” (PLoS ONE, 2019).
